This is one part of the list. At the low end of the ranking the order means little.
The sequences below were run against T1, GST-Rok-C97-191 (UniProt O34857) (assay: protein binding microarray). Conditions: Rok is a gene silencer of Bacillus subtilis; high values mean tight binding; most listed sequences are background and not binding sites; double strand, one strand shown.
T1 sequence: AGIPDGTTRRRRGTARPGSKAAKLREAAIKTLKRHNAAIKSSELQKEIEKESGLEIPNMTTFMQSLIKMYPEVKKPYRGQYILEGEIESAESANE
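Further: rank score from −0.5 (least bound) to 0.5 (best bound).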

Row | Sequence | binding signal [E-score]
1 | AGACTAAT | 0.161
2 | CCATACGG | -0.0882
3 | GAATCGTC | 0.057
4 | TCACCCAA | 0.191
5 | AGGCGCGA | -0.181
6 | ATTGGACG | 0.174
7 | GGACGTAA | 0.000609
8 | GTGCGGGA | -0.196
9 | ATAGCGAC | -0.0927
10 | CCGGTGCG | -0.262
11 | AAGGTGAA | -0.151
12 | GGTTTCGA | -0.0944
13 | CTTCCCAA | -0.295
14 | AGTAGGGG | -0.0784
15 | ATGGTCTA | 0.0944
16 | GACGAGAA | -0.192
17 | CAGGATGA | -0.017
18 | GAGAGGAA | -0.0944
19 | CAACATTG | -0.0666
20 | TATGAATA | 0.167
21 | CTTTATAA | 0.0683
22 | GCCGGAGC | -0.201
23 | AAGGAAGC | -0.125
24 | ACTGTTAC | 0.156
25 | CGATAAAC | 0.0566

Row | Sequence | binding signal [E-score]
26 | ACTTAACG | -0.0495
27 | GGTACTCA | 0.0516
28 | CCTCGGCA | -0.341
29 | CACAAATG | -0.108
30 | AAACTTCG | -0.00372
31 | GCAACCAA | 0.00758
32 | AGAAGTCA | 0.0184
33 | GCCCCCGA | -0.23
34 | CCAGCTGA | -0.181
35 | GGCCCCGA | -0.245
36 | AAGACGGT | -0.0446
37 | CGCGGGTA | -0.0716
38 | ATGAGAAC | 0.00403
39 | ATCGTTGC | 0.0841
40 | ATGCTATA | 0.35
41 | ATCCTAAA | 0.00116
42 | GGCCTCGA | -0.191
43 | AATAGATA | 0.32
44 | AATGTTGC | -0.0243
45 | CACTACCA | 0.0866
46 | TCCTACGA | 0.0386
47 | AAGGTGGG | -0.239
48 | GCGGAATA | 0.173
49 | GGTCAGAC | -0.193
50 | TTCTACAA | 0.362

Row | Sequence | binding signal [E-score]
51 | ACATCTCC | 0.00293
52 | ATACTACC | 0.379
53 | AACCACCT | -0.117
54 | AGAGGCTC | -0.145
55 | ACCCGCAC | -0.157
56 | ACAGTGGC | -0.115
57 | GGGTTCAC | -0.121
58 | AGTCAACC | -0.151
59 | CAGAGATA | 0.215
60 | GAGACCGA | -0.0757
61 | ATCGGCAC | -0.245
62 | ACTCACGC | -0.127
63 | CCTACCAG | 0.0329
64 | ATATCTTC | 0.344
65 | TCGCGAGA | 0.0322
66 | AGAAGTAG | 0.185
67 | AGCCCCAT | -0.0793
68 | AATCCCCT | -0.124
69 | AGGAAGAG | -0.07
70 | GAAACGGC | -0.0909
71 | ACAACTCG | 0.00896
72 | ACGAGATC | 0.0809
73 | AGAGGACC | -0.212
74 | CATTCACC | 0.00668
75 | AAACCCTA | 0.0584

Row | Sequence | binding signal [E-score]
76 | TGTTCGAA | 0.0431
77 | AAACAGCG | -0.208
78 | AACTATGA | 0.248
79 | ATACTCAA | 0.0675
80 | CAACTTTC | 0.0951
81 | AAAAGGTT | 0.0591
82 | GCAGACCA | -0.298
83 | ACGTGGAG | -0.0208
84 | TCGTCACA | 0.117
85 | CATACAAG | 0.0681
86 | CCTCAGGA | -0.204
87 | CCTGAATA | 0.196
88 | CGCGTCAC | -0.124
89 | TCCAACCA | -0.00863
90 | GATACGAA | 0.0761
91 | AGTAATCC | 0.0756
92 | AAGAGCTA | 0.215
93 | TCTCTCCA | -0.123
94 | AGTGGAAA | 0.183
95 | CTTCTGCC | -0.142
96 | GATCCTAA | 0.0337
97 | ATAACATG | 0.0615
98 | ATCGCAGA | -0.0401
99 | AAAGAACG | 0.0923
100 | ATGTCCAA | 0.196

Row | Sequence | binding signal [E-score]
101 | CGTATTAA | 0.0605
102 | ACAAGGAG | -0.167
103 | AACTACGA | 0.283
104 | ACATTTTG | 0.0334
105 | GTACCTGA | 0.0665
106 | ATGTCGGC | -0.168
107 | AAGGAGCA | -0.262
108 | GATCACTA | 0.102
109 | CTCCAAAG | -0.218
110 | AAGTGGGG | -0.194
111 | CCTAAGCG | -0.279
112 | AAACGCGG | -0.0305
113 | CGAGAGGC | -0.283
114 | GATAGTCA | 0.000914
115 | GCAGGGAC | -0.31
116 | TGTGTAAA | 0.111
117 | AGGCAGTG | -0.329
118 | CAGCAGTC | -0.00812
119 | CAGAATTA | 0.0677
120 | CTTCGTTC | -0.204
121 | GCGCGAGC | -0.202
122 | GAGACCGC | -0.222
123 | CAGTCCTA | -0.0512
124 | ACTGCCTG | -0.0891
125 | GTAGTTCA | 0.186

Row | Sequence | binding signal [E-score]
126 | CATGACAA | 0.0839
127 | AGTCAGAG | -0.0374
128 | CGAATAGA | 0.0543
129 | AATCGATG | 0.104
130 | CGGGCTCA | -0.279
131 | GACGTACA | 0.0182
132 | AAACAGGG | 0.119
133 | CAACGGCC | -0.179
134 | TCCAAAGA | -0.0575
135 | CAGATGAA | -0.0148
136 | GGTATGAC | 0.0159
137 | ACACTGGA | -0.152
138 | AACCGGAA | -0.114
139 | GATAAATC | 0.111
140 | GCATATCA | 0.0784
141 | ATATACGC | 0.239
142 | ATGAACCG | -0.148
143 | CCGTCCCC | -0.318
144 | CAGCGCTG | -0.271
145 | GCACACAA | -0.0985
146 | AGGTGGGA | -0.0303
147 | GCCGTAGA | 0.096
148 | TCCTATAA | 0.184
149 | AAGCAAGC | -0.165
150 | CAGGACGG | -0.0793

Row | Sequence | binding signal [E-score]
151 | GTATCTTA | 0.308
152 | CGCACTTA | -0.0238
153 | CAGAAGCG | -0.0659
154 | GGCGGGCA | -0.232
155 | AGGGCCAC | -0.302
156 | CTATGAGC | -0.0781
157 | CTGGGCCC | -0.249
158 | CCAGTTAG | -0.0501
159 | ATGTCTAG | 0.135
160 | AAGCCGGG | -0.111
161 | CCTAAACC | -0.301
162 | AAAAGCTG | 0.152
163 | ATGAGAGA | -0.00452
164 | CCGGTCAC | -0.178
165 | ACTACAAA | 0.195
166 | GTTAGACA | 0.0373
167 | CTATCGTA | 0.357
168 | GTGCTAAA | 0.107
169 | CTACAACC | 0.097
170 | CTAGAAGA | 0.138
171 | CCGAACCC | -0.176
172 | CACCACGC | -0.284
